Measurements as given in ChEMBL document CHEMBL1201862, “PubChem BioAssay data set” (2004).
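Cells were grown in 96-well plates and exposed to each compound for 48 hours at five concentrations; endpoints were interpolated linearly between bracketing concentrations, or set to the highest concentration if not reached. At the GI50, growth is halved.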 Activity calls are given as the source filed them. Cut-off read from the data, not from the text of the source: active = GI50 up to about 1.1 µM and inactive = higher.

What follows are compounds tested on NCI-H322M (assay: NCI-60 cell line screen, 48 h).

SMILES	GI50
Cc1cc(C)cc(NC(N)=S)c1	inactive: > 100 µM
O=c1oc2ccc3ccccc3c2cc1-c1nc2ccccc2o1	inactive: 28.1 µM
O=C(O)[C@@H](NS(=O)(=O)c1ccc2ccccc2c1)c1ccccc1	inactive: > 100 µM
CCN(CC)CCCNc1ccc2nnn3c4ccc(O)cc4c(=O)c1c23	inactive: 8.83 µM
COc1ccc(N2C(=O)c3c(c4[nH]c5ccccc5c4c4ccc(C(C)(C)C)cc34)C2=O)cc1	inactive: 64.1 µM
O=C(/C=C/c1c(O)nc2ccccc2c1O)CC(=O)C(=O)Nc1cccc(O)c1	inactive: > 100 µM
C=CCN1C[C@H](C)N([C@@H](c2ccc(C(=O)N3CCCCC3)cc2)c2cccc(OC)c2)C[C@H]1C	inactive: 78 µM
Cc1cc2c(=O)cc(-c3ccc(C(=O)O)cc3)oc2c(C(N)=O)c1C	inactive: > 100 µM
CSc1[nH]nc(N)c1C(=O)Nc1ccc(C)cc1	inactive: 29 µM
COc1cccc(C2CC(C)=Nc3c(ccc4c3C(=O)c3ccccc3C4=O)N2)c1O (configuration not stated)	active: 1.08 µM
O=C(O)c1cc(=O)c2c([nH]c3ccccc32)s1	inactive: > 100 µM
N#C/C(=C\c1c(Cl)cccc1Cl)c1ccccc1	inactive: 8.09 µM
Cc1cc(N(CCC#N)CCC#N)ccc1/C=C\C(=O)Nc1ccccc1	inactive: > 100 µM
O=C1C=C(C2=C(C3=CC(=O)c4ccccc4C3=O)C(=O)c3ccccc3C2=O)C(=O)c2ccccc21	inactive: 9.1 µM
C1=C2/CC[C@H](Sc3ccccc3)[C@H]2C2(CCCCC/1)OCCO2	inactive: 54 µM
CC(=O)Oc1c(C)cc(-c2cc(C)c(OC(C)=O)c(C)c2)cc1C	inactive: 18.8 µM
Cc1cccc2c1C/C(=C\c1cccc(C)c1C(=O)O)C2=O	inactive: > 100 µM
CCOC(=O)NC(=O)c1cn(CCCCCCCCCCC(=O)N2CCN(CCn3cc(C(=O)NC(=O)OCC)c(=O)[nH]c3=O)CC2)c(=O)[nH]c1=O	inactive: > 100 µM
CCCS(=O)(=O)/C(=C(\c1ccc(Br)cc1)S(=O)(=O)CCC)c1ccc(Br)cc1	inactive: > 10 µM
Cc1ccc(S(=O)(=O)NC(=O)NC(Cc2c[nH]c3ccccc23)C(=O)O)cc1 (configuration not stated)	inactive: > 100 µM
Cc1cccc(C)c1NC(=O)/C(=N/NC(N)=S)C(C)C(=O)c1ccc(Cl)cc1 (configuration not stated)	inactive: > 100 µM
c1ccc2c(c1)nnn2CNc1ccc(N2CCCCC2)cc1	inactive: > 100 µM
Cc1ccc(SC2C(C)(C)N(C(C)C)P2(=O)N(C(C)C)C(C)C)cc1 (configuration not stated)	inactive: > 100 µM

SMILES	GI50
COc1ccc(-n2cnc3c(NC(CCSC)C(=O)O)ncnc32)cc1 (configuration not stated)	inactive: > 100 µM
COc1cc(/C=C/C(=N\NC(=O)c2ccccc2)c2sc(Nc3ccc(Cl)c(Cl)c3)nc2C)ccc1O	inactive: 40.3 µM
CC1C(c2ccccc2O)c2cc3c(cc2OC1N1CCCC1)OCO3 (configuration not stated)	inactive: 33.4 µM
Clc1nc2c(C#Cc3ccccc3)ncnc2n1C1CCCCO1 (configuration not stated)	inactive: 15.6 µM
CC(=O)Nc1cc(Cl)cc(Cl)c1O	inactive: > 100 µM
CN1C(=O)C(CCO)(C(C)(C)C)c2ccccc21 (configuration not stated)	inactive: > 100 µM
CC(C)NC(=O)OCc1c(COC(=O)NC(C)C)n(C)c2c1ccc1ccsc12	inactive: 13.4 µM
Cc1[nH]c2ccccc2c1CC/C(=N\Nc1ccccc1)c1ccccc1	inactive: > 100 µM
O=C(c1cc(O)ccc1O)c1ccccc1C(Cl)(Cl)Cl	inactive: > 100 µM
CC1=C(NC(=O)C(=O)NNC(=O)c2ccncc2)C(=O)c2ccccc2C1=O	inactive: 14.8 µM
COc1c(Br)cc(Br)c(OC)c1-c1[nH]c(Br)c(Br)c1Br	inactive: 9.89 µM
O=C(OCCOCCOC(=O)c1c[nH]cc1-c1ccccc1)c1c[nH]cc1-c1ccccc1	inactive: 23.8 µM
C/C(=N/NC(=S)Nc1ccccc1Cl)c1cccc(/C(C)=N\NC(=S)Nc2ccccc2Cl)n1	inactive: 4.19 µM
CC1=Nc2ccccc2SC(c2c(Cl)cccc2Cl)C1 (configuration not stated)	inactive: 1.85 µM
C1=NN(Cc2ccccc2)C(N(Cc2ccccc2)Cc2ccccc2)N1 (configuration not stated)	inactive: 19 µM
CC(C(=O)Oc1ccc2ccccc2c1-c1c(O)ccc2ccccc12)c1ccccc1 (configuration not stated)	inactive: 15.7 µM
CCOC(=O)C(Cc1cn(S(=O)(=O)c2ccc(C)cc2)cn1)P(=O)(OCC)OCC (configuration not stated)	inactive: > 100 µM
CC(=O)NC(=N/N=C1/C(=O)Nc2ccc(C)cc21)NC(C)=O	inactive: > 100 µM
O=C1Cc2ccccc2N1/N=C\c1ccc([N+](=O)[O-])cc1	inactive: > 100 µM
Cc1nn(CNc2ccc(F)c(Cl)c2)c(=S)n1/N=C/c1ccc(-c2ccc(Cl)cc2Cl)o1	inactive: 18.6 µM
O=C1c2ccccc2-c2nnc3c(c21)-c1ccccc1C3	inactive: > 100 µM
N/N=C1\C(=O)N(C2CCCCC2)C(=O)C1C(=O)NC1CCCCC1 (configuration not stated)	inactive: > 100 µM
CC1=C(/C=C/C(C)=C/C2CC(N(C)C)=CC(=O)O2)C(C)(C)CCC1 (configuration not stated)	inactive: 17 µM

SMILES	GI50
O=C1C(=O)N(c2nccs2)C(=O)C(=O)C1c1nc2ccccc2s1	inactive: > 100 µM
COc1cc2oc(=O)cc(C)c2cc1O	inactive: > 100 µM
CC1SC2(CCCCC2)N(NC(=O)CSc2nc3ccc(Cl)cc3c(=O)n2-c2ccccc2)C1=O (configuration not stated)	inactive: 32.7 µM
COc1ccc2c(c1)[C@@]13CCN4CC5=CCO[C@H]6CC(=O)N2[C@H]1[C@H]6[C@H]5C[C@H]43	inactive: > 100 µM
N#Cc1nc(CCC(C(=O)O)N2C(=O)c3ccccc3C2=O)oc1N (configuration not stated)	inactive: > 100 µM
CCC1C(C(=O)Nc2ccccc2C)=C(C)NC(C)=C1c1ccccc1C (configuration not stated)	inactive: > 100 µM
CCN(CC)CCN1CCN=c2c3cc(OC)ccc3n3cnc4ccc1c2c43	active: 0.343 µM
CCOC(=O)N(c1ccccc1)N(CC)C(=O)/C(C)=N/Nc1ccc([N+](=O)[O-])cc1	inactive: 21.6 µM
Cc1cccc2c1C(=O)C(C1OC(=O)c3ccccc31)C2 (configuration not stated)	inactive: > 100 µM
COc1cc(O)c(C(=O)CC(C)=O)c(OC)c1	inactive: > 100 µM
CCOc1ccc(-c2oc(/C=N/NS(=O)(=O)c3ccc(C)cc3)c([N+](=O)[O-])c2-c2ccc(OCC)cc2)cc1	inactive: 23.2 µM
CC(=O)/C(C)=N/NC(=O)c1ccccc1O	inactive: > 10 µM
Cc1ccc2c(c1)SC(c1cc3c(cc1Br)OCO3)S2 (configuration not stated)	inactive: > 31.6 µM
N#Cc1nc(NC(=O)c2ccccc2)sc1N	inactive: > 10 µM
N#Cc1c(-c2ccccc2)cc(Nc2ccc(F)cc2)n2c1nc1ccccc12	inactive: 2.13 µM
CCOc1ccc(NC(=O)C2=C(C)NC(C)=C(C(=O)Nc3ccc(OCC)cc3)C2c2ccc([N+](=O)[O-])cc2)cc1	inactive: 66.1 µM
Cc1cc(S(=O)(=O)NC2=Nc3cccc4cccc(c34)N2)c(S)cc1Cl	inactive: > 100 µM
c1cncc(C2N3CCCCC3[C@@H]3c4[nH]c5ccccc5c4CCN23)c1 (some centres not stated)	inactive: 91.6 µM
CCC(=O)Oc1c2ccsc2c(OC(=O)CC)c2ccsc12	inactive: 1.73 µM
COc1cc2c(cc1O)CC13CCC(=O)N1CCc1cc(OC)c(O)c-2c13 (configuration not stated)	inactive: > 6.81 µM
CC(C)(C)[Si](C)(C)OC1C(=O)C[C@H]2CCCC[C@@H]12 (some centres not stated)	inactive: > 100 µM
CCc1nc(N)nc(C(=O)NCCNC(=O)c2nc(N)nc(CC)c2C)c1C	inactive: > 100 µM
CC(=O)O[C@H]1C(=O)[C@@]2(C)[C@H]([C@H](OC(=O)c3ccccc3)[C@]3(O)C[C@H](OC(=O)[C@H](OC(=O)OCCC(O)CO)[C@@H](NC(=O)c4ccccc4)c4ccccc4)C(C)=C1C3(C)C)[C@]1(OC(C)=O)CO[C@@H]1C[C@@H]2O (some centres not stated)	active: < 0.01 µM

SMILES	GI50
COC(=O)c1ccccc1NCc1cc(O)ccc1O	inactive: 56.1 µM
CC[C@@H](C)[C@@H]1NC(=O)C(C(C)=O)=C1O	inactive: 25.9 µM
COc1ccccc1/C=C/C1=NN(c2cccc(S(=O)(=O)O)c2)C2(C1)SCC(=O)N2c1nc2ccccc2s1 (configuration not stated)	inactive: > 100 µM
CC(C)(C)c1cc2nc(c1)C(C(F)(F)F)(C(F)(F)F)OB(Br)OC2(C(F)(F)F)C(F)(F)F	active: 0.127 µM
Cc1cc2c(=O)cc(-c3ccc(Cl)cc3Cl)oc2c(C(=O)O)c1C	inactive: > 100 µM
C=CCNC(=O)C(C)C1CCC2(C)C=CC(=O)C(C)=C2C1O (configuration not stated)	inactive: > 100 µM
O=c1[nH]nc(Cc2ccccc2)n1/N=C/c1ccccc1O	inactive: > 100 µM
CC1=CC(=O)/C(=C/n2c(=S)[nH]c3ccccc32)C(=O)O1	inactive: > 100 µM
COC(=O)CCC(=O)c1ccc2c(c1)CC1(Cc3ccccc3C1)C2	inactive: > 100 µM
O=c1/c(=C/c2ccc([N+](=O)[O-])o2)sc2n1[C@@H](c1ccc3c(c1)OCO3)C=C(c1cc(F)c(Cl)cc1Cl)N=2	inactive: 38.3 µM
O=c1c(Cc2ccc(Cl)cc2)nnc2sc(-c3ccc([N+](=O)[O-])cc3)nn12	inactive: 25.3 µM
COC(=O)CC(=O)C[P+](c1ccccc1)(c1ccccc1)c1ccccc1	inactive: > 218 µM
Cn1c(=O)cc2[nH]c3ccccc3n2c1=O	inactive: > 100 µM
S=c1sc2ccccc2n1CN1CCN(Cc2ccccc2)CC1	inactive: > 100 µM
C1CSCCSCCSCCSCCS1	inactive: > 100 µM
N=C1CSC2=NC3=C(CCC/C3=C\c3ccccc3)C(c3ccccc3)N12 (configuration not stated)	inactive: 10 µM
CCCCCCCCCCCCC(SCCNC(=O)CCNC(=O)C(O)C(C)(C)COP(=O)(O)OP(=O)(O)OCC1OC(n2cnc3c(N)ncnc32)C(O)C1OP(=O)(O)O)C(=O)NCC(N)=O (configuration not stated)	inactive: 77.3 µM
O=S(=O)(O)CS(=O)(=O)OCCCl	inactive: > 100 µM
CC1(CO)OC1COCc1ccccc1 (configuration not stated)	inactive: > 100 µM
CC1(C)[N+]([O-])=[N+]([O-])C1(C)Br (configuration not stated)	inactive: > 100 µM
Cc1cc(S(=O)(=O)Nc2nc(N)n(-c3ccccn3)n2)c(S)cc1Cl	inactive: > 100 µM
CC1(C)OC1COc1c2occc2cc2ccc(=O)oc12 (configuration not stated)	inactive: > 100 µM
OCCCCn1cnc2c(O)ncnc21	inactive: > 100 µM
